B1: PhoQ; a variant is named by its letters at X, in order, P23837 (parent)
chain: MKKLLRLFFPLSLRVRFLLATAAVVLVLSLAYGMVALIGYSVSFDKTTFRLLRGESNLFYTLAKWENNKLHVELPENIDKQSPTMTLIYDENGQLLWAQRDVPWLMKMIQPDWLKSNGFHEIEADVNDTSLLLSGDHSIQQQLQEVREDDDDAEMTHSVAVNVYPATSRMPKLTIVVVDTIPVELKSSYMVWSWFIYVLSANLLLVIPLLWVAAWWSLRPIEALAKEVRELEEHNRELLNPATTRELTSLVRNLNRLLKSERERYDKYRTTLTDLTHSLKTPLXXLQXXLRSLRSEKMSVSDAEPVMLEQISRISQQIGYYLHRASMRGGTLLSRELHPVAPLLDNLTSALNKVYQRKGVNISLDISPEISFVGEQNDFVEVMGNVLDNACKYCLEFVEISARQTDEHLYIVVEDDGPGIPLSKREVIFDRGQRVDTLRPGQGVGLAVAREITEQYEGKIVAGESMLGGARMEVIFGRQHSAPKDE

Some of the results follow. Where only a bound is given, the exact number is not on record here.

This test covers variants of B1. As to the kind of experiment: enrichment ratio after two sorts for PhoP signalling (ratio (wild type AVST 3.29)); higher = more functional. Conditions: with PhoP (E. coli).
With SEHF, the enrichment ratio was at most 0.25.

Regarding SLWP, the enrichment ratio is at most 0.25.

As to AIQM, the enrichment ratio is at most 0.25.

On to VCNF, for which the enrichment ratio was at most 0.25.

Take FMWI: the enrichment ratio is at most 0.25.

Regarding FHSE, the enrichment ratio is at most 0.25.

As for ILGG, the enrichment ratio was at most 0.25.

RQPA: the enrichment ratio is at most 0.25.

Turning to SFVN, the enrichment ratio is at most 0.25.

Take GNVG: the enrichment ratio is 2.06.

As to DMML, the enrichment ratio was at most 0.25.

For the variant VCTC, the enrichment ratio was at most 0.25.

Consider GAKI, for which the enrichment ratio was at most 0.25.

FIGG: the enrichment ratio is at most 0.25.

QGFC: the enrichment ratio came to 8.27.

With LDIH, the enrichment ratio was at most 0.25.

In the case of NFNG, the enrichment ratio is at most 0.25.

As for SNFM, the enrichment ratio was at most 0.25.

Consider LSYW, for which the enrichment ratio is at most 0.25.

Take GPTQ: the enrichment ratio is at most 0.25.

As for NASV, the enrichment ratio is at most 0.25.

As to PCVR, the enrichment ratio was at most 0.25.

Consider ISPS, for which the enrichment ratio was at most 0.25.

Take WMKR: the enrichment ratio was at most 0.25.

With LGCS, the enrichment ratio is at most 0.25.

For the variant ENTN, the enrichment ratio was at most 0.25.

Turning to IADA, the enrichment ratio was at most 0.25.

With NRNA, the enrichment ratio was at most 0.25.

Consider MMCK, for which the enrichment ratio was at most 0.25.

Regarding ILWH, the enrichment ratio is at most 0.25.

For the variant HQRC, the enrichment ratio is at most 0.25.

As to PMWC, the enrichment ratio was 1.62.

As to DLQN, the enrichment ratio was at most 0.25.

As for KMIE, the enrichment ratio was at most 0.25.

On to ECES, for which the enrichment ratio was at most 0.25.

Consider VGMN, for which the enrichment ratio was at most 0.25.

In the case of AEYG, the enrichment ratio was determined as 36.3.

Take IMPS: the enrichment ratio was at most 0.25.

Take MHSR: the enrichment ratio was at most 0.25.

Take MAPM: the enrichment ratio was at most 0.25.

As for VRKM, the enrichment ratio was at most 0.25.

Turning to GRNS, the enrichment ratio is at most 0.25.

In the case of TCCV, the enrichment ratio turned out to be 8.17.

In the case of TECP, the enrichment ratio is at most 0.25.

Consider HLLV, for which the enrichment ratio was at most 0.25.

For SYPF, the enrichment ratio is at most 0.25.

With YSMA, the enrichment ratio is at most 0.25.

In the case of KIRW, the enrichment ratio was at most 0.25.

KNQY: the enrichment ratio is at most 0.25.

As for RIDW, the enrichment ratio is at most 0.25.

As for TENK, the enrichment ratio turned out to be 5.62.

In the case of MWLA, the enrichment ratio is at most 0.25.

As to QYPF, the enrichment ratio is at most 0.25.

As for TLLA, the enrichment ratio amounted to 0.849.

For the variant IHTK, the enrichment ratio is at most 0.25.

MPTR: the enrichment ratio was at most 0.25.

Take SDDK: the enrichment ratio was at most 0.25.

For the variant VMQK, the enrichment ratio is at most 0.25.

As to LPGF, the enrichment ratio is at most 0.25.

YTAN: the enrichment ratio is at most 0.25.

Take EIYT: the enrichment ratio is at most 0.25.

For DKIV, the enrichment ratio is at most 0.25.

For the variant RTPC, the enrichment ratio was at most 0.25.

As for VPSE, the enrichment ratio was at most 0.25.

Turning to ANFA, the enrichment ratio is at most 0.25.

Turning to MMND, the enrichment ratio is at most 0.25.

Turning to QIWM, the enrichment ratio is at most 0.25.

As for VMGK, the enrichment ratio is at most 0.25.

Turning to KPSH, the enrichment ratio is at most 0.25.

In the case of DLCG, the enrichment ratio is at most 0.25.

For QIVT, the enrichment ratio was at most 0.25.

For YFFQ, the enrichment ratio was 0.271.

For HFHW, the enrichment ratio was at most 0.25.

APMC: the enrichment ratio is at most 0.25.

With TRVH, the enrichment ratio was found to be 0.615.

With SRNM, the enrichment ratio was at most 0.25.

Regarding FEDT, the enrichment ratio was at most 0.25.

Consider TSNG, for which the enrichment ratio worked out at 3.81.

Take SACN: the enrichment ratio came out at 9.88.

As to DPLQ, the enrichment ratio is at most 0.25.

Turning to NEHF, the enrichment ratio was at most 0.25.

Turning to WKWR, the enrichment ratio was at most 0.25.

Take YNWD: the enrichment ratio is at most 0.25.

For the variant DFGH, the enrichment ratio is at most 0.25.

As to KCWL, the enrichment ratio is at most 0.25.

On to VMDA, for which the enrichment ratio was at most 0.25.

NQVV: the enrichment ratio is at most 0.25.

Turning to KVHA, the enrichment ratio was at most 0.25.

Regarding KCRQ, the enrichment ratio is at most 0.25.

With RMCN, the enrichment ratio was at most 0.25.

In the case of NGIR, the enrichment ratio is at most 0.25.

Consider MPQI, for which the enrichment ratio was at most 0.25.

VCKK: the enrichment ratio was at most 0.25.

Regarding TFVV, the enrichment ratio was at most 0.25.

As to LWEA, the enrichment ratio is at most 0.25.

On to HPFG, for which the enrichment ratio was at most 0.25.

For the variant KLCG, the enrichment ratio was at most 0.25.

On to QRDF, for which the enrichment ratio is at most 0.25.

For the variant RPDN, the enrichment ratio was at most 0.25.

As to LMSP, the enrichment ratio was at most 0.25.

With MGNS, the enrichment ratio is at most 0.25.

For LIWD, the enrichment ratio is at most 0.25.

On to RYPT, for which the enrichment ratio was at most 0.25.

As for GFPI, the enrichment ratio is at most 0.25.

On to IFCK, for which the enrichment ratio is at most 0.25.

As to IPCF, the enrichment ratio is at most 0.25.

As for SSQI, the enrichment ratio came to 10.1.

With QMKD, the enrichment ratio was at most 0.25.

As for WYNH, the enrichment ratio was at most 0.25.

Consider KRTD, for which the enrichment ratio was at most 0.25.

Turning to WARG, the enrichment ratio is at most 0.25.

For the variant YLPG, the enrichment ratio was at most 0.25.

As for ESWS, the enrichment ratio is at most 0.25.

Consider WKQV, for which the enrichment ratio is at most 0.25.

With FDGA, the enrichment ratio is at most 0.25.

NCHL: the enrichment ratio was at most 0.25.

NAAK: the enrichment ratio is at most 0.25.

Regarding LIYT, the enrichment ratio is at most 0.25.

On to LSAI, for which the enrichment ratio came out at 0.256.

For the variant RRKF, the enrichment ratio is at most 0.25.

As to MGNR, the enrichment ratio is at most 0.25.

As to FAYT, the enrichment ratio is at most 0.25.

On to HQRL, for which the enrichment ratio was at most 0.25.

Regarding MDAR, the enrichment ratio is at most 0.25.

With VTQY, the enrichment ratio is at most 0.25.

Regarding LSRL, the enrichment ratio is at most 0.25.

Consider WFEP, for which the enrichment ratio is at most 0.25.

Take VWIA: the enrichment ratio is at most 0.25.

For TIYG, the enrichment ratio is 8.23.

Regarding EMLR, the enrichment ratio was at most 0.25.

Consider IFIT, for which the enrichment ratio is at most 0.25.

Take GVSF: the enrichment ratio came to 11.8.

Turning to NMPN, the enrichment ratio was at most 0.25.

For IRYP, the enrichment ratio is at most 0.25.

Turning to LWNV, the enrichment ratio was at most 0.25.

As for YNVR, the enrichment ratio is at most 0.25.

As to GHAN, the enrichment ratio is at most 0.25.

As to LHVP, the enrichment ratio was at most 0.25.

On to ICGR, for which the enrichment ratio is at most 0.25.

In the case of QQMW, the enrichment ratio is at most 0.25.

As to VVKP, the enrichment ratio was at most 0.25.

Regarding TTVI, the enrichment ratio stood at 6.62.

For TDLT, the enrichment ratio was determined as 7.28.

As for KYDT, the enrichment ratio is at most 0.25.

Turning to KTIQ, the enrichment ratio is at most 0.25.

Consider RPVP, for which the enrichment ratio is at most 0.25.

Consider EQRC, for which the enrichment ratio is at most 0.25.

With YDLA, the enrichment ratio is at most 0.25.

For RDCY, the enrichment ratio is at most 0.25.

LRQL: the enrichment ratio is at most 0.25.

Turning to SRSI, the enrichment ratio is at most 0.25.

Turning to PYQL, the enrichment ratio is at most 0.25.

For the variant NYFG, the enrichment ratio was at most 0.25.
